Reference: PMC4698670
These are yes or no findings as the source states them, for the method shown. In cells and extracts the contact can be indirect. Some results given as binding are weak or reduced against the parent protein; the word gives no strength. For part of these data: Sequences can lack the tags named with a protein. Values belong to the binder of their own block, whether it stands above or below them.

Key:
[1] = biological target: T1, native PRX1 of mouse liver (mouse (endogenous in C57BL/6J liver)) (UniProt P35700); assay: co-IP; native immunoprecipitation: cleared C57BL/6J mouse liver lysate with mouse anti-PRX1 (13E7) or normal mouse IgG and sheep anti-mouse Dynabeads, overnight at 4 °C; 20 mM HEPES pH 7.4, 35 mM NaCl, 0.001% NP-40; blot with anti-fortilin and anti-PRX1
T1 sequence: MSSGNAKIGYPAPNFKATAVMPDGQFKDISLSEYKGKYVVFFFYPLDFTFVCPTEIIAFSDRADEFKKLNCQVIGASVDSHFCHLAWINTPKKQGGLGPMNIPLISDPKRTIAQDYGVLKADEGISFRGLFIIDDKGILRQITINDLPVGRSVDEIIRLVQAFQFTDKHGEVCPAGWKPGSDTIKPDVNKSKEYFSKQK

PRX1-FLAG (human) = biological target: T2, PRX1-FLAG (human) (UniProt Q06830); assay: co-IP; cell-based bi-directional immunoprecipitation: cleared lysates of U2OS lines co-expressing fortilin-HA and a PRX-FLAG on anti-FLAG (M2) agarose, anti-HA agarose or bare beads, 37 °C for 4 hours; blot with anti-HA and anti-FLAG
T2 sequence: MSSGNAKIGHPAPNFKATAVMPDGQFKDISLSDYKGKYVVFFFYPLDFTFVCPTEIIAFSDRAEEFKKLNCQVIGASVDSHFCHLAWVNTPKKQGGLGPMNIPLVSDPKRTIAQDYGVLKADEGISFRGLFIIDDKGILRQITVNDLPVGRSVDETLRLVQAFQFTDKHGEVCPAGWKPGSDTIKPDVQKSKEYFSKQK

[2] = biological target: T3, peroxiredoxin-1 (PRX1), endogenous in U2OS cells (human (endogenous in U2OS)) (UniProt Q06830); assay: proximity ligation; wild-type U2OS cells, fixed and permeabilized; mouse anti-fortilin (2C4) with goat anti-PRX1 or anti-PRX4; Duolink PLA probes, signal if within 30 nm
T3 sequence: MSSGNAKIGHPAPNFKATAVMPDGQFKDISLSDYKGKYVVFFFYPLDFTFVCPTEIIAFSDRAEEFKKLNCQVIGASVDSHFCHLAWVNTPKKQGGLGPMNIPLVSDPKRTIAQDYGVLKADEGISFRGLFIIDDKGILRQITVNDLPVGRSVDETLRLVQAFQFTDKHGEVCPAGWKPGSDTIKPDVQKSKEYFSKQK

[3] = biological target: T4, PRX4, endogenous in wild-type U2OS cells (human (endogenous in U2OS)) (UniProt Q13162); assay: as above
T4 sequence: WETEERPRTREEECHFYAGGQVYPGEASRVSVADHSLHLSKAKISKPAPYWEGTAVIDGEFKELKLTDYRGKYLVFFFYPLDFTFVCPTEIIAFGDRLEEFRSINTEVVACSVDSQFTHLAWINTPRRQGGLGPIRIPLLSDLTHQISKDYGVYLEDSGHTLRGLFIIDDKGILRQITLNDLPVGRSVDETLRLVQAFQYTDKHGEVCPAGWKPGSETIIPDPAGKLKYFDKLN

[4] = biological target: T5, fortilin tagged with the haemagglutinin (HA)-epitope at its C-terminal end (not stated (human or mouse cDNA cloned)) (UniProt P13693); assay: co-IP; cell-based bi-directional immunoprecipitation: cleared lysates of U2OS lines co-expressing fortilin-HA and a PRX-FLAG on anti-FLAG (M2) agarose, anti-HA agarose or bare beads, 37 °C for 4 hours; blot with anti-HA and anti-FLAG
T5 sequence: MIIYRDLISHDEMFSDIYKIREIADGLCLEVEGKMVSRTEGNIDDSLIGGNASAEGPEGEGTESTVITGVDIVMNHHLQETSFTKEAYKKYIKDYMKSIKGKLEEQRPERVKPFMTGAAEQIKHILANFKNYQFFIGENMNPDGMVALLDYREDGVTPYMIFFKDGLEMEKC

[5] = biological target: T5, fortilin tagged with the haemagglutinin (HA)-epitope at its C-terminal end (not stated (human or mouse cDNA cloned)); assay: co-IP; cell-based forward immunoprecipitation: cleared lysates of U2OS lines expressing HA-tagged bait on agarose-conjugated anti-HA (3F10); blot with anti-HA and anti-PRX1
NQO2-HA = biological target: T6, NQO2-HA (UniProt P16083); assay: as above
T6 sequence: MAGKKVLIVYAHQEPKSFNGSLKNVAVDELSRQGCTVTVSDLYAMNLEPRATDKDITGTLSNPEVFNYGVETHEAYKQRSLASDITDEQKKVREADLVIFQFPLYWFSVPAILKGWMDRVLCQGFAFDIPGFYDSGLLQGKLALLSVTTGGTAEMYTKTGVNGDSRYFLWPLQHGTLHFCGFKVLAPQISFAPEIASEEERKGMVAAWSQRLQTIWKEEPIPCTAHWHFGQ

[6] = biological target: T7, HA-tagged fortilin (transfected, wild type of the point-mutant panel) (not stated (human or mouse cDNA cloned)) (UniProt P13693); assay: co-IP; U2OS cells transfected with plasmids for HA-tagged fortilin or its point mutants; lysates subjected to co-immunoprecipitation and Western blot for PRX1
T7 sequence: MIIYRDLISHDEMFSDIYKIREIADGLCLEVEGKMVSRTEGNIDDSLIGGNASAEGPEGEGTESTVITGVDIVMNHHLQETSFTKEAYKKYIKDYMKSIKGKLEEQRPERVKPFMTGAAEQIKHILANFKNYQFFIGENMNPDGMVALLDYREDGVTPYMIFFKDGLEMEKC

[7] = biological target: T8, fortilin_(ΔR21A), HA-tagged (not stated (human or mouse cDNA cloned)) (UniProt P13693); assay: as above
T8 sequence: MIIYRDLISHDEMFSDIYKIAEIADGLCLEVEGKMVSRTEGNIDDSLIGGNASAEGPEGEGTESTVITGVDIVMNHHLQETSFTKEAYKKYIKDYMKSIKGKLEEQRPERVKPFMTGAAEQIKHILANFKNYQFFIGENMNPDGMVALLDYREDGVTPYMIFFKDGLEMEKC

[8] = biological target: T9, fortilin_(ΔI3R), HA-tagged (not stated (human or mouse cDNA cloned)) (UniProt P13693); assay: as above
T9 sequence: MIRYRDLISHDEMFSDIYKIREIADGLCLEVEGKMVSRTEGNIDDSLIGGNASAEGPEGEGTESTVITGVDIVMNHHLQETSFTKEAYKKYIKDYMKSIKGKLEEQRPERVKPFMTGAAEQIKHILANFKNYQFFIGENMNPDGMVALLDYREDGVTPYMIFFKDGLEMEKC

[9] = biological target: T10, fortilin_(ΔL7R), HA-tagged (not stated (human or mouse cDNA cloned)) (UniProt P13693); assay: as above
T10 sequence: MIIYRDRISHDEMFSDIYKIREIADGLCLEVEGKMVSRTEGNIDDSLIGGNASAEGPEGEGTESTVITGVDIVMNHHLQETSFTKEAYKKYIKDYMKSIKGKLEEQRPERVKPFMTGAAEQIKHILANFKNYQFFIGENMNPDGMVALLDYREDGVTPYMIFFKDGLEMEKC

binding [1]: binds
B1: native fortilin of mouse liver (protein, UniProt P63028 1-172)
chain: MIIYRDLISHDELFSDIYKIREIADGLCLEVEGKMVSRTEGAIDDSLIGGNASAEGPEGEGTESTVVTGVDIVMNHHLQETSFTKEAYKKYIKDYMKSLKGKLEEQKPERVKPFMTGAAEQIKHILANFNNYQFFIGENMNPDGMVALLDYREDGVTPFMIFFKDGLEMEKC

B2: fortilin tagged with the haemagglutinin (HA)-epitope at its C-terminal end (protein, UniProt P13693 1-172)
chain: MIIYRDLISHDEMFSDIYKIREIADGLCLEVEGKMVSRTEGNIDDSLIGGNASAEGPEGEGTESTVITGVDIVMNHHLQETSFTKEAYKKYIKDYMKSIKGKLEEQRPERVKPFMTGAAEQIKHILANFKNYQFFIGENMNPDGMVALLDYREDGVTPYMIFFKDGLEMEKC
binding (PRX1-FLAG (human)): binds

binding [2]: binds
binding [3]: no binding
B3: fortilin, endogenous in wild-type U2OS cells (protein, UniProt P13693 1-172)
chain: MIIYRDLISHDEMFSDIYKIREIADGLCLEVEGKMVSRTEGNIDDSLIGGNASAEGPEGEGTESTVITGVDIVMNHHLQETSFTKEAYKKYIKDYMKSIKGKLEEQRPERVKPFMTGAAEQIKHILANFKNYQFFIGENMNPDGMVALLDYREDGVTPYMIFFKDGLEMEKC

B4: PRX4-FLAG (protein, UniProt Q13162 38-271)
chain: WETEERPRTREEECHFYAGGQVYPGEASRVSVADHSLHLSKAKISKPAPYWEGTAVIDGEFKELKLTDYRGKYLVFFFYPLDFTFVCPTEIIAFGDRLEEFRSINTEVVACSVDSQFTHLAWINTPRRQGGLGPIRIPLLSDLTHQISKDYGVYLEDSGHTLRGLFIIDDKGILRQITLNDLPVGRSVDETLRLVQAFQYTDKHGEVCPAGWKPGSETIIPDPAGKLKYFDKLN
binding [4]: no binding

B5: PRX2-FLAG (protein, UniProt P32119 1-198)
chain: MASGNARIGKPAPDFKATAVVDGAFKEVKLSDYKGKYVVLFFYPLDFTFVCPTEIIAFSNRAEDFRKLGCEVLGVSVDSQFTHLAWINTPRKEGGLGPLNIPLLADVTRRLSEDYGVLKTDEGIAYRGLFIIDGKGVLRQITVNDLPVGRSVDEALRLVQAFQYTDEHGEVCPAGWKPGSDTIKPNVDDSKEYFSKHN
binding [4]: binds

B6: PRX3-FLAG (protein, UniProt P30048 62-256)
chain: APAVTQHAPYFKGTAVVNGEFKDLSLDDFKGKYLVLFFYPLDFTFVCPTEIVAFSDKANEFHDVNCEVVAVSVDSHFSHLAWINTPRKNGGLGHMNIALLSDLTKQISRDYGVLLEGSGLALRGLFIIDPNGVIKHLSVNDLPVGRSVEETLRLVKAFQYVETHGEVCPANWTPDSPTIKPSPAASKEYFQKVNQ
binding [4]: binds

B7: PRX5-FLAG (protein, UniProt P30044 53-214)
chain: MAPIKVGDAIPAVEVFEGEPGNKVNLAELFKGKKGVLFGVPGAFTPGCSKTHLPGFVEQAEALKAKGVQVVACLSVNDAFVTGEWGRAHKAEGKVRLLADPTGAFGKETDLLLDDSLVSIFGNRRLKRFSMVVQDGIVKALNVEPDGTGLTCSLAPNIISQL
binding [4]: binds

B8: peroxiredoxin-1 (PRX1), endogenous in U2OS cells (protein, UniProt Q06830 1-199)
chain: MSSGNAKIGHPAPNFKATAVMPDGQFKDISLSDYKGKYVVFFFYPLDFTFVCPTEIIAFSDRAEEFKKLNCQVIGASVDSHFCHLAWVNTPKKQGGLGPMNIPLVSDPKRTIAQDYGVLKADEGISFRGLFIIDDKGILRQITVNDLPVGRSVDETLRLVQAFQFTDKHGEVCPAGWKPGSDTIKPDVQKSKEYFSKQK
binding [5]: binds
binding (NQO2-HA): no binding
binding [6]: binds
binding [7]: binds
binding [8]: binds
binding [9]: no binding

B9: PRX1-FLAG (protein, UniProt Q06830 1-199)
chain: MSSGNAKIGHPAPNFKATAVMPDGQFKDISLSDYKGKYVVFFFYPLDFTFVCPTEIIAFSDRAEEFKKLNCQVIGASVDSHFCHLAWVNTPKKQGGLGPMNIPLVSDPKRTIAQDYGVLKADEGISFRGLFIIDDKGILRQITVNDLPVGRSVDETLRLVQAFQFTDKHGEVCPAGWKPGSDTIKPDVQKSKEYFSKQK
binding [4]: binds
